Measurements taken from PubChem BioAssay AID1347434 (National Center for Advancing Translational Sciences (NCATS), 2020).
Out of some 1,200 compounds screened, about 30 (2%) were called active. About 23% were inconclusive and are not listed. Calls follow the shape of the dose curve; as a rule, active = well fitted inhibition curve with a large enough effect; inconclusive = small, poorly fitted or top-dose-only effect; inactive = flat fitted curve, though single readings scatter. Some of the results follow.

target: Single-stranded DNA cytosine deaminase (Homo sapiens) (UniProt Q9GZX7); assay: Confirmatory qHTS assay for inhibitors of Activation Induced Cytidine Deaminase (AID): AID signals; settings: recombinant AID, FRET deamination/UDG coupled fluorescence, 4 h; series mostly up to 115 µM; activity, negative = inhibition: at the top concentration
UniProt Q9GZX7, sequence (Q9GZX7 whole entry, looked up): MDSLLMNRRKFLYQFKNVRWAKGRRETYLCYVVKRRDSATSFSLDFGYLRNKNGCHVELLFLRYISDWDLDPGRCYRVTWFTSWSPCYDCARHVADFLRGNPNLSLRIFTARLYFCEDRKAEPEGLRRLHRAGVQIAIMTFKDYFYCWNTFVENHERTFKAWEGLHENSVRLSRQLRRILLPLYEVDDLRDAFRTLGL
In short: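 Read 1 (AID) was measured at 540 ex/590 em after a 30 min NaOH step. The reaction was AID (1 uM, 4/3x stock) with UDG, compound at final 7.32 nM - 114 uM for 10 min, then DJC20/DJC23 substrate for 4 hr at room temperature. A UDG read at 560/665 serves as counterscreen.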
% is scaled to controls: 0 for no effect and ±100 for the full control effect; potency is read from the fitted curve at half-maximal effect.

activity, negative = inhibition, inactive:
COc1cc(OC)c(N(C)C(=O)c2nn(C)c3c2CSc2ccccc2-3)cc1Cl -7.59%
O=C(NCC(c1ccccc1)c1ccccc1)c1nn(-c2ccccc2Cl)nc1CO -13.2%
COc1ccc(C(=O)c2cn(Cc3cccc(C)c3)c3cc4c(cc3c2=O)OCCO4)cc1OC -16.1%
CCN(CC)CCCNC(=O)c1ccc2c(c1)sc1nc(-c3ccc(C)cc3)cn12 -24.7%
COc1ccccc1-c1nn(CCC(=O)Nc2ccc(C)cc2)c2nc(C)cc(C)c12 -5.06%
COc1ccc(OCc2nc3ccccc3n2Cc2ccc(C(C)(C)C)cc2)cc1 -23.3%
Cc1ccc(-n2ncc(C(=O)NCCN3CCC(Cc4ccccc4)CC3)c2C2CCN(C(=O)OC(C)(C)C)CC2)cc1 -12.9%
COc1cc2c(cc1OC)C(COc1cc(C)cc(C)c1)N(C(=O)C(C)(C)C)CC2 (centres undefined) -4.65%
CCCCN(Cc1ccccc1)C(=O)CN(C)S(=O)(=O)c1ccc2c(c1)c(=O)n(C)c(=O)n2C -1.56%
O=C(c1ccc2c(c1)OCO2)c1cn(Cc2ccc(F)cc2)c2ccccc2c1=O -19.9%
Cc1ccc(NC(=O)C2CCCN(S(=O)(=O)c3cccc4cccnc34)C2)cc1Cl (centres undefined) -27.7%
COc1ccc(Br)cc1CNC(=O)c1cc2n(n1)CCCN(Cc1ccc(C)cc1)C2=O -4.58%
CCC(C(=O)Nc1cc(OC)cc(OC)c1)n1nc(-c2ccc(C)c(C)c2)ccc1=O (centres undefined) -19.2%
CCC(Sc1nncn2c1cc1occc12)C(=O)Nc1ccc(C)c(Cl)c1 (centres undefined) -3.07%
Cc1ccc(-c2noc(CN(C(=O)COc3cc(C)cc(C)c3C)C(C)C)n2)cc1 -2.39%
CCOc1ccccc1CNC(=O)c1cccn1-c1nnc(N2CCCCC2)s1 -15.3%
C=Cc1ccc(CSc2nc(-c3ccc(C)cc3)nc3c2Cc2c(CO)cnc(C)c2O3)cc1 -23.5%
COc1cc2ccccc2cc1C(=O)N1CCN(c2nc3ccc(F)cc3s2)CC1 -19.5%
Cc1ccc(CN(Cc2ccco2)C(=O)COc2ccc(Cl)cc2)o1 -4.17%
Cc1ccc2onc(CC(=O)N3CCN(c4cccc(C)c4C)CC3)c2c1 -10.3%
COc1ccc(-c2nc(Cn3c(SCc4ccc(F)cc4)nc4cccnc43)c(C)o2)cc1 -8.87%
CCN(CC)CCNC(=O)c1ccc2c(=O)n3nc(Nc4ccccc4)sc3nc2c1 -15.6%
COc1ccccc1N1CCN(C(=O)c2cc3ccc4ccc(C)[nH]c4c3n2)CC1 3.08%
CCOc1ccc(NC(=O)CCS(=O)(=O)c2ccc(Br)cc2)cc1 -1.55%
CC(=O)N1CCCc2cc(S(=O)(=O)N3CCCC(C(=O)N4CCN(c5cc(C)ccc5C)CC4)C3)ccc21 (centres undefined) -13%
CCOc1ccc(Nc2c(S(=O)(=O)c3ccccc3)cnc3ccccc23)cc1 -20.5%
COc1ccc(OC)c(CNC(=O)CSc2c3c(nc4cc(Cl)ccc24)CCCC3)c1 -3.21%
Cc1ccc(CSC2=Nc3ccccc3C3=NC(CC(=O)NCc4ccc5c(c4)OCO5)C(=O)N23)cc1 (centres undefined) -18%
COc1ccc(OC)c(NC(=O)Cn2c(=O)cc(C)c3c(C)nn(-c4cccc(Cl)c4C)c32)c1 -25%
O=S1(=O)c2ccccc2N(Cc2ccc(Cl)cc2)c2ccccc21 -8.91%
O=C(NCCc1ccc(Cl)cc1)c1ccc2c(c1)N(Cc1ccc(Cl)cc1)C(=O)CS2 -4.7%
COc1cccc(C(=O)Nc2ccc3oc(-c4cccc5c(Br)cccc45)nc3c2)c1 -22.2%
Cc1cc(C)c(NC(=O)CSc2ncc(S(=O)(=O)c3ccc(C(C)(C)C)cc3)c(=O)[nH]2)c(C)c1 -9.91%
Cc1ccc(Cl)cc1NC(=O)CSc1nc(C)c(C)c(C)c1C#N -0.0381%
Cc1ccc(C2=NN(CC(=O)NCCN(CC(C)C)CC(C)C)C(=O)CC2)cc1 -12.6%
CC(C)n1c(SCC(=O)Nc2ccc(F)cc2)nc2c(oc3ccccc32)c1=O -9.08%
CCN(c1cccc(C)c1)S(=O)(=O)c1nnc(NC(=O)c2ccccc2Cl)s1 -16.9%
COc1ccc(-c2cn3cccnc3n2)cc1NC(=O)c1cc(C)cc(C)c1 -8.96%
Cc1cc(Cl)ccc1OCC(=O)N(Cc1ccco1)Cc1ccccc1F -5.53%
COc1ccc(NCc2cccn2-c2nnc(N3CCCCCC3)s2)cc1 -9.42%
CC(=O)c1ccc(NC(=O)C2CCN(c3nnc(C)c4c(C)n(-c5ccccc5)nc34)CC2)cc1 -29.1%
CCCCn1c(CNC(=O)C23CC4CC(CC(C4)C2)C3)nnc1SCC(=O)Nc1ccc(C)cc1 -19.3%
COc1ccc(C(=O)c2cn(Cc3ccccc3F)c3cc4c(cc3c2=O)OCCO4)cc1OC -18.9%
COc1ccc(-c2csc3nc(-c4ccc(C)cc4)oc(=O)c23)cc1OC -17.6%
CCOc1ccc(NC(=O)[C@@H](c2ccccc2)N2Cc3ccccc3C2=O)cc1 -12%
COc1cccc(N2CCN(C(=O)c3ccc4c(Cl)c5c(nc4c3)CCCC5)CC2)c1 -22.5%
Cc1ccc(Nc2c3c(nc4nc(-c5cccs5)nn24)CCCC3)cc1F -24.6%
COc1ccc(N2C(=O)CSC23C(=O)N(Cc2cccc(C(F)(F)F)c2)c2ccccc23)cc1 (centres undefined) -22.2%
CCCCOc1cccc(C(=O)Nc2cccc3ccc(C)nc23)c1 -2.14%
COc1cc(OC)cc(C(=O)Nc2ccc3nc(N4CCC(C)CC4)cc(C)c3c2)c1 -6.18%
Cc1ccc(C)c(N2CCN(C(=O)c3ccc4c(Cl)c5c(nc4c3)CCCC5)CC2)c1 -8.67%
COc1ccc(C(=O)N(Cc2ccco2)Cc2ccccc2F)cc1Cl -20.4%
CC1=C(C(=O)NCc2cccc(Cl)c2)C2(CCCCCC2)OC1=O 1.97%
Cc1ccc2c(c1)-c1ncc(C(=O)c3cc(Br)ccc3O)cc1CO2 0.761%
Cc1cc(C)cc(Nc2cc(C)nc3nc(-c4ccco4)nn23)c1 -6.46%
Cc1cccc(OC(C)C(=O)N2CCC(c3nc4ccccc4o3)CC2)c1C (centres undefined) -10.2%
COc1ccc(C(CNC(=O)COc2cc(C)c(Cl)c(C)c2)N2CCCCC2)cc1 (centres undefined) 4.72%

Potency, active:
N#C/C(=C\c1ccc(-c2cc(Cl)ccc2Cl)o1)C(=O)Nc1ccccc1C(=O)O 28.2 µM
CC(=O)[C@]1(O)Cc2c(O)c3c(c(O)c2[C@@H](O[C@H]2C[C@H](N)[C@H](O)[C@H](C)O2)C1)C(=O)c1ccccc1C3=O 5.62 µM
